# In PubChem BioAssay AID720537 (National Center for Advancing Translational Sciences (NCATS), 2013):
# About 55 (3%) of roughly 1,600 compounds were called active. The inconclusive results got no clear call from the source; some entries with a clear call stand among them for comparison. Calls follow the shape of the dose curve; as a rule, active = well fitted inhibition curve with a large enough effect; inconclusive = small, poorly fitted or top-dose-only effect; inactive = no such curve, though single readings can be large or run the other way. No potency is given beside an inconclusive call; the fits are too rough.
# Assay: qHTS for Inhibitors of TGF-b: Hit Validation in HepG2 Cells using COP promoter; also: nearly all actives have a fitted effect of over 70% in size;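 as to activity, negative = inhibition: 0% = TGF-beta stimulated DMSO wells and -100% = unstimulated cell wells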
# Conditions: HepG2 COP-GFP TGF-b reporter, GFP fluorescence, 18 h, cells stimulated by added recombinant TGF-beta; activity, negative = inhibition: at 46.1 µM (top of the series)
# Method in brief: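 Inhibition values derive from cell-by-cell GFP fluorescence summed per well, normalized between unstimulated wells (full inhibition) and TGF-beta-stimulated DMSO wells (none). HepG2 COP-GFP cells received compound, then 500 pg/mL TGF-beta for 18 h.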
# Potency is read from the fitted curve at half-maximal effect; tags tell the direction and shape of the fitted curve.
SMILES,Potency,"activity, negative = inhibition"
CCN(C[C@H]1N[C@@](Cc2ccccc2)(C(=O)OC)[C@H]2C(=O)N(Cc3ccccc3)C(=O)[C@@H]12)C(=O)Nc1ccc(F)cc1,inactive,
O=C(C[C@H]1C/C=C\CC[C@H](Cc2ccc(F)cc2)C(=O)O[C@@H](c2ccccc2)CNC1=O)N[C@@H](CO)Cc1ccccc1,inactive,
O=C1C(Nc2ccccc2)=C/C(=N/S(=O)(=O)c2cccs2)c2ccccc21,"inconclusive [inhibitor, full curve]",
COc1ccc(Nc2nnc(-c3ccc(C)cc3)c3ccccc23)cc1C(=O)N1CCCCC1,inactive,
COc1ccc(C(NC(=O)CN2C(=O)NC3(CCc4ccccc43)C2=O)c2ccccc2)cc1 (stereo unspecified),inactive,
COc1cc2c(cc1OC)C(C)N(C(=O)c1cc(C)on1)CC2 (stereo unspecified),,inconclusive: -14% [inhibitor]
CCN(c1ccccc1)S(=O)(=O)c1ccc(NC(=O)c2nc(S(C)(=O)=O)ncc2Cl)cc1,active: 6.51 µM,
Cc1ccc(NC(=O)c2nc(S(=O)(=O)Cc3ccccc3C)ncc2Cl)cc1C,"inconclusive [inhibitor, single point]",
Cc1cc(Cl)n2c(nc3cc(F)c(F)cc32)c1C#N,active: 18.4 µM,
O=S(Cc1ccc(Br)cc1)Cc1nnc(SCc2c(F)cccc2Cl)n1-c1ccccc1 (stereo unspecified),inactive,
Cc1ccccc1CS(=O)(=O)c1nnc([C@H](CC(C)C)NC(=O)OC(C)(C)C)o1,"inconclusive [inhibitor, single point]",
COc1ccc(/C=N/n2cnc3c([nH]c4ccc(F)cc43)c2=O)cc1CN1CCCC1,"inconclusive [inhibitor, single point]",
c1ccc(-c2nc3nonc3nc2-c2ccccc2)cc1,"inconclusive [inhibitor, single point]",
O=C(CSc1nnc(CCc2ccccc2)n1-c1ccc(Cl)cc1)NCc1ccccc1,inactive,
Cc1ccnc(NC(=S)N2CCN(c3cccc(C(F)(F)F)c3)CC2)c1,inactive,
O=C1C(Cl)=C(NCc2cccnc2)C(=O)c2ccccc21,active: 16.4 µM,
N#CCc1ccc(NC(=O)/C=C/c2ccc([N+](=O)[O-])o2)cc1,"inconclusive [inhibitor, single point]",
CC(C)(C)c1nnc(NC(=O)CCS(=O)(=O)c2ccccc2)s1,inactive,
CCC1=C(CC2NCCc3ccccc32)CC2c3cc(OC)c(OC)cc3CCN2C1 (stereo unspecified),inactive,
COc1ccccc1-c1cc(C(F)(F)F)nc(S(=O)(=O)CCCC(=O)N2CCOCC2)n1,"inconclusive [inhibitor, single point]",
O=[N+]([O-])c1cnc(Sc2ccncn2)s1,active: 3.66 µM,
O=C(NCCN1CCOCC1)c1ccc(Cl)c(S(=O)(=O)N2CCCCCC2)c1,inactive,
NC(=O)CC(NC(=O)Cc1cccc2ccccc12)c1ccc(N2CCC(Br)CC2)c([N+](=O)[O-])c1 (stereo unspecified),inactive,

SMILES,Potency,"activity, negative = inhibition"
COc1ccccc1NS(=O)(=O)c1ccc(-c2cnc(C3CC3)o2)cc1,inactive,
Clc1ccc2c(SCC3CO3)c3ccccc3nc2c1 (stereo unspecified),active: 16.4 µM,
CN(C)CCNC(=O)c1ccc(Cl)c2cc3ccccc3nc12,inactive,
Clc1ccc(-n2nnnc2Sc2ncnc3sccc23)cc1,"inconclusive [inhibitor, single point]",
COc1cc(C2Oc3ccccc3C=C2[N+](=O)[O-])cc(OC)c1OC (stereo unspecified),"inconclusive [inhibitor, single point]",
CC(=O)OC1CCC2(C)C(CCC3C4CC=C(C(C)=O)C4(C)OC(=O)CC32)C1 (stereo unspecified),"inconclusive [inhibitor, single point]",
O=C(Nc1ccc(N2CCN(C(=O)c3ccc(Cl)cc3)CC2)cc1)c1ccc([N+](=O)[O-])o1,"inconclusive [inhibitor, single point]",
COc1ccc(C(CNC(=O)c2oc3ccc(OC)cc3c2C)N2CCCC2)cc1 (stereo unspecified),inactive,
Cc1ccc(C2(c3ccc(C)cc3)CC2C(=O)Nc2ccc([N+](=O)[O-])cc2O)cc1 (stereo unspecified),"inconclusive [inhibitor, single point]",
CCS(=O)(=O)c1ncc(Cl)c(C(=O)Nc2ccc(S(=O)(=O)N3CCC(C)CC3)cc2)n1,active: 9.2 µM,
COc1ccccc1Cc1c(-c2ccco2)nc2c(C)cc(Br)cn12,"inconclusive [inhibitor, single point]",
O=c1c(Br)c(Br)cnn1-c1ccccc1,"inconclusive [inhibitor, single point]",
Cc1cccc(COCC(CC(C)C)N2CCN(C(=O)c3ccc(C(C)(C)C)cc3)CCC2=O)c1 (stereo unspecified),"inconclusive [inhibitor, single point]",
COc1cc(NC(=O)c2[nH]cnc2C(N)=O)cc(C(=O)Nc2cccc(C(F)(F)F)c2)c1,"inconclusive [inhibitor, single point]",
Cc1ccccc1/C=C/C(=O)c1ccc([N+](=O)[O-])o1,"inconclusive [inhibitor, single point]",
Nc1nc(N)c2c(ccc3c2ccn3Cc2cccc([N+](=O)[O-])c2)n1,active: 13 µM,
OCCCNc1nccc(-c2cc(Nc3cccc(Cl)c3)ncn2)n1,inactive,
O=S(=O)(CC(CN1CCCCC1)N1CCCCC1)c1ccc2ccccc2c1 (stereo unspecified),"inconclusive [inhibitor, single point]",
O=S(=O)(/C(=C/c1ccc(C(F)(F)F)cc1)c1nc2ccccc2[nH]1)c1ccccc1,"inconclusive [inhibitor, single point]",
O=C(NC1=CC(=O)c2ccccc2C1=O)c1ccccc1,active: 16.4 µM,
CN(C)CCN(C)C1CN(Cc2ccc(F)cc2)S(=O)(=O)C1 (stereo unspecified),inactive,
O=C(Nc1cccc(NC(=O)c2ccc([N+](=O)[O-])o2)c1)c1ccco1,"inconclusive [inhibitor, single point]",
CC(C)C[C@H]1CNC(=S)N1CC1CCCN1C[C@H](CC(C)C)N1C[C@H](Cc2ccc(O)cc2)N(CC2CCCCC2)C1=S (stereo partly specified),"inconclusive [inhibitor, single point]",
